# Laboratory results: the supplement of paper PMC8728848
# Some of the results follow.
# B1: PX9937A-bvu-521-23-521 (Bacteroides vulgatus) (protein)
# chain: LDLAPEDYYGAGNFWKEASQPKAFMLGLHAQLRSYYDMFYTLGELRGGTQRVGTSSLNTSLNYADIRSQNISEDIPGISNWNGLYSPIMQVNHFIQEVENGCTFLDDATRSRYLGQAYGMRALYYFMLYRTFGGVPLITKVDILDGKPSADKFYVERATPEATMEFIKADINKSENYFGNNTSFDAYDWSRYATLMLKAEIYMWAAKVSITGFTATGATDLQTAKTALSGIIGHFELMDNFASIFSCDNKKNTEIIFAMPFIEGEASNDGGRFLYQDAVFLGQAYGRNGKVIEKDTLNLKGTGGVFRDEYTEDFWKTFKEGDSRRDATFMEYYMKNDNGTLSEFGCVMKKRIGTINSNDNRIYISDIPVYRYADALLMMAEIENGLNNPCASYINEVRKRAYGDTFEENKYTEGSYAENELAILQERDKEFVSEGKRWFDVLRMHDASGRSLVFSANANYPGTNPILGTEEAYKMLWPVNIGTLNVNPLLTQTPGYGKK
# Columns and labels:
# Assay in all cases: glycan array binding signal (z-score within array); higher = stronger binding
# Settings in all cases: glycan notation: IUPAC condensed, linker removed
# [1] = target: Gal3S(b1-4)Glc
# In short: (§1)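 Columns mapping to the same glycan were averaged after glycan names were converted to IUPAC-condensed notation. The data come from 3228 arrays in the Consortium for Functional Glycomics database, limited to those with an available protein sequence. Binding is reported as a within-array Z-score averaged across arrays of one protein sequence and across linkers.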
# [2] = target: Gal3S(b1-4)Glc6S
# In short: as §1
# [3] = target: Gal3S(b1-4)GlcNAc
# In short: as §1
# [4] = target: Gal3S(b1-4)[Fuc(a1-3)]Glc6S
# In short: as §1
# [5] = target: Gal3S(b1-4)[Fuc(a1-3)]GlcNAc
# In short: as §1
# [6] = target: Gal3S(b1-4)[Fuc(a1-3)]GlcNAc6S
# In short: as §1
# [7] = target: Gal3S4S(b1-4)GlcNAc
# In short: as §1
# [8] = target: Gal3S6S(b1-4)GlcNAc
# In short: as §1
# [9] = target: Gal3S6S(b1-4)GlcNAc6S
# In short: as §1
# [10] = target: Gal4S(b1-4)GlcNAc
# In short: as §1
# [11] = target: Gal4S6S(b1-4)GlcNAc
# In short: as §1
# [12] = target: Gal6P(b1-4)GlcNAc
# In short: as §1
# [13] = target: Gal6S(b1-3)GlcNAc
# In short: as §1
# [14] = target: Gal6S(b1-3)GlcNAc6S
# In short: as §1
# [15] = target: Gal6S(b1-4)Glc
# In short: as §1
# [16] = target: Gal6S(b1-4)Glc6S
# In short: as §1
# [17] = target: Gal6S(b1-4)GlcNAc
# In short: as §1
# [18] = target: Gal6S(b1-4)GlcNAc6S
# In short: as §1
# [19] = target: GalNAc(a1-3)Gal
# In short: as §1
# [20] = target: GalNAc(a1-3)GalNAc
# In short: as §1
# [21] = target: GalNAc(a1-3)GalNAc(b1-3)Gal(a1-4)Gal(b1-4)Glc
# In short: as §1
# [22] = target: GalNAc(a1-3)GalNAc(b1-3)Gal(a1-4)Gal(b1-4)GlcNAc
# In short: as §1
# [23] = target: GalNAc(b1-3)Gal
# In short: as §1
# [24] = target: GalNAc(b1-3)Gal(a1-4)Gal(b1-4)GlcNAc
# In short: as §1
# [25] = target: GalNAc(b1-3)Gal(a1-4)Gal(b1-4)GlcNAc(b1-3)Gal(b1-4)Glc
# In short: as §1
# [26] = target: GalNAc(b1-3)Gal(a1-6)Gal(b1-4)Glc
# In short: as §1
# [27] = target: GalNAc(b1-3)GalNAc
# In short: as §1
# [28] = target: GalNAc(b1-3)GlcNAc
# In short: as §1
# [29] = target: GalNAc(b1-4)Gal(b1-4)Glc
# In short: as §1
# [30] = target: GalNAc(b1-4)GlcNAc
# In short: as §1
# [31] = target: GalNAc(b1-4)GlcNAc(b1-2)Man
# In short: as §1
# [32] = target: GalNAc(b1-4)GlcNAc(b1-2)Man(a1-3)[GalNAc(b1-4)GlcNAc(b1-2)Man(a1-6)]Man(b1-4)GlcNAc(b1-4)GlcNAc
# In short: as §1
# [33] = target: GalNAc(b1-4)GlcNAc(b1-3)GalNAc(b1-4)GlcNAc
# In short: as §1
# [34] = target: GalNAc(b1-4)GlcNAc6S
# In short: as §1
# [35] = target: GalNAc(b1-6)GalNAc
# In short: as §1
# [36] = target: GalNAc3S(b1-4)GlcNAc
# In short: as §1
# [37] = target: GalNAc3S(b1-4)GlcNAc3S
# In short: as §1
binder,measurement,setting,value
B1,glycan array binding signal (z-score),[1],-0.237
same,glycan array binding signal (z-score),[2],-0.188
same,glycan array binding signal (z-score),[3],-0.002
same,glycan array binding signal (z-score),[4],0.244
same,glycan array binding signal (z-score),[5],-0.201
same,glycan array binding signal (z-score),[6],-0.018
same,glycan array binding signal (z-score),[7],-0.185
same,glycan array binding signal (z-score),[8],-0.124
same,glycan array binding signal (z-score),[9],0.389
same,glycan array binding signal (z-score),[10],-0.63
same,glycan array binding signal (z-score),[11],-0.264
same,glycan array binding signal (z-score),[12],-0.348
same,glycan array binding signal (z-score),[13],-0.451
same,glycan array binding signal (z-score),[14],-0.386
same,glycan array binding signal (z-score),[15],0.302
same,glycan array binding signal (z-score),[16],-0.163
same,glycan array binding signal (z-score),[17],-0.118
same,glycan array binding signal (z-score),[18],-0.378
same,glycan array binding signal (z-score),[19],-0.599
same,glycan array binding signal (z-score),[20],-0.63
same,glycan array binding signal (z-score),[21],0.484
same,glycan array binding signal (z-score),[22],-0.318
same,glycan array binding signal (z-score),[23],-0.186
same,glycan array binding signal (z-score),[24],0.47
same,glycan array binding signal (z-score),[25],-0.13
same,glycan array binding signal (z-score),[26],0.139
same,glycan array binding signal (z-score),[27],-0.078
same,glycan array binding signal (z-score),[28],-0.413
same,glycan array binding signal (z-score),[29],-0.542
same,glycan array binding signal (z-score),[30],2.94
same,glycan array binding signal (z-score),[31],0.13
same,glycan array binding signal (z-score),[32],-0.274
same,glycan array binding signal (z-score),[33],-0.093
same,glycan array binding signal (z-score),[34],0.089
same,glycan array binding signal (z-score),[35],-0.402
same,glycan array binding signal (z-score),[36],-0.552
same,glycan array binding signal (z-score),[37],-0.273
